The other results are listed elsewhere or left out. At the low end of the ranking the order means little.

This is an account of results in PMC10668032.

In this assay the target is SIX1-Q177R homeodomain (UniProt Q15475). The assay is described as follows: universal protein binding microarray. The note with it: Universal all-10-mer PBM (8x60K, AMADID 030236), 300 nM GST-tagged protein, Alexa Fluor 488 anti-GST; buffer, salt, pH and temperature not stated; high values mean tight binding; most listed sequences are background and not binding sites; double strand, one strand shown.
Regarding AGTAAAGC, the binding signal was -0.318 E-score.
As to GCTCGGGA, the binding signal is -0.0653 E-score.
With CATACGAA, the binding signal was -0.148 E-score.
For the sequence CAGGGGCC, the binding signal is -0.14 E-score.
Turning to ACGCATCA, the binding signal is -0.048 E-score.
For the sequence CCTTACAC, the binding signal worked out at 0.439 E-score.
Regarding AAACAGAT, the binding signal is -0.26 E-score.
On to AGAAGGAG, for which the binding signal is -0.163 E-score.
On to GGATATCC, for which the binding signal was determined as 0.0614 E-score.
For the sequence CTAACTCC, the binding signal was 0.0567 E-score.
In the case of CAGGTGTA, the binding signal came out at 0.464 E-score.
AGAACAAA: the binding signal is -0.309 E-score.
As to ACCACGGA, the binding signal was determined as 0.178 E-score.
Under GAGCATAA stands -0.119 E-score; under ACCGCTAA, -0.149 E-score; under CGAGTCTC, 0.0724 E-score.
For GTTACTCA the value was -0.112 E-score; for CCCACGCG, -0.0181 E-score; for ACCCATGG, 0.234 E-score.
With AAGTTGTA, the binding signal was -0.0367 E-score.
Under CGATGTAG stands -0.13 E-score; under AGAACTGG, -0.233 E-score.
For CGGATCAG, the binding signal is 0.174 E-score.
Take CACATCAA: the binding signal is -0.205 E-score.
For GTTCTCAA, the binding signal is -0.265 E-score.
Consider AGCTAAGG, for which the binding signal is -0.215 E-score.
Consider ACTGTCTC, for which the binding signal is -0.139 E-score.
TACGTCGA: the binding signal was -0.16 E-score.
For AGGTCACT the value was 0.0289 E-score; for TACCACTA, 0.0694 E-score; for ATAATGGG, 0.02 E-score.
In the case of ATGTTATA, the binding signal is -0.141 E-score.
For ATAGAAAT the value was -0.121 E-score; for ACGTGGGA, 0.113 E-score.
AACAGATC: the binding signal was -0.19 E-score.
As for GAATCCGA, the binding signal stood at 0.111 E-score.
Regarding AACTGCCA, the binding signal was -0.253 E-score.
For TACTCGAA the value was -0.122 E-score; for AACTGTTC, -0.132 E-score.
Under AAGAGACT stands -0.275 E-score.
Regarding AGGGTTAG, the binding signal is 0.0726 E-score.
For the sequence ATCATTGC, the binding signal was -0.147 E-score.
For AGAGTCCA the value was 0.0229 E-score; for ACTACCTA, 0.0214 E-score; for TCGGACCA, -0.124 E-score.
On to GGAAGATA, for which the binding signal turned out to be 0.112 E-score.
Under TACGCCCA stands 0.12 E-score; under CACTGAGG, 0.227 E-score; under CGCTGCAC, 0.14 E-score.
Under ATGGTAGC stands -0.157 E-score; under AATGCCTG, -0.2 E-score; under AAACTTAC, -0.0389 E-score.
For AGGCGGAC the value was -0.114 E-score; for CGCTGACA, 0.124 E-score; for ACTAGCAC, 0.194 E-score.
In the case of TATAGGGA, the binding signal is -0.145 E-score.
Under ATCTACTC stands 0.136 E-score; under AAAAAGAT, -0.268 E-score.
For ATAACTGC the value was -0.113 E-score; for ATTCACAA, 0.0444 E-score.
Consider ATCCAGAA, for which the binding signal is 0.0661 E-score.
As to CATTTTAG, the binding signal was -0.138 E-score.
As for ATCCATAC, the binding signal was -0.0277 E-score.
Take ATGAAGCG: the binding signal was -0.154 E-score.
For GTCTGGCA the value was -0.209 E-score; for GCATCATA, -0.0183 E-score.
In the case of GCGATGAA, the binding signal is -0.00868 E-score.
On to ACGAACGT, for which the binding signal was -0.0992 E-score.
As to AATACACC, the binding signal worked out at 0.46 E-score.
Under GAATACCA stands 0.00666 E-score; under ATATTGGA, -0.0673 E-score.
In the case of AATGGCCG, the binding signal is -0.104 E-score.
On to ATTGGTCC, for which the binding signal is -0.113 E-score.
For the sequence ATCCCAAG, the binding signal was -0.0145 E-score.
For the sequence CAGTAGCA, the binding signal was -0.19 E-score.
Consider TCGAAAAA, for which the binding signal was -0.207 E-score.
Take TACACGTA: the binding signal came out at 0.355 E-score.
As to ATACTGCA, the binding signal worked out at 0.0155 E-score.
On to CTGTCTTC, for which the binding signal was -0.281 E-score.
Consider ACCTGCGC, for which the binding signal was 0.0978 E-score.
Take AGTCCAAC: the binding signal is -0.0677 E-score.
ATACACAG: the binding signal came to 0.187 E-score.
Consider AGAGGAGG, for which the binding signal was -0.182 E-score.
In the case of AAAATCAG, the binding signal came out at 0.0139 E-score.
With GCCATATA, the binding signal is 0.109 E-score.
For TAAGTGCA the value was -0.016 E-score; for TAAAGGCA, -0.165 E-score.
Turning to ACATGTCT, the binding signal is -0.161 E-score.
On to ATACTCCG, for which the binding signal came to 0.195 E-score.
Under CAACGTGA stands -0.115 E-score; under CTGAGAGC, -0.0686 E-score.
For ACGCCTAA, the binding signal turned out to be 0.0755 E-score.
Turning to ATGTGCCG, the binding signal was -0.0987 E-score.
CCCGGCCG: the binding signal turned out to be 0.0377 E-score.
As for GGCGAAAC, the binding signal was -0.0939 E-score.
For GGGCTACC the value was -0.154 E-score; for CCGGAGTC, 0.224 E-score; for CGGTGACC, 0.0172 E-score.
For ACTAAGTG, the binding signal worked out at 0.0303 E-score.
On to ATGACAGC, for which the binding signal was -0.254 E-score.
Take CCTCGAGC: the binding signal is -0.0393 E-score.
On to ACGCCTTA, for which the binding signal was found to be 0.099 E-score.
In the case of ACGGTTCA, the binding signal is -0.0149 E-score.
Consider TTATGCAA, for which the binding signal was -0.00447 E-score.
CGCGGTAC: the binding signal is 0.103 E-score.
For TACTGCGA the value was -0.135 E-score; for GCTATAAC, -0.00284 E-score; for AGCTGCAC, 0.0226 E-score.
As to ACGGGGAC, the binding signal is 0.00281 E-score.
Take GAGGTAAC: the binding signal worked out at 0.00303 E-score.
AAGAAAGC: the binding signal was -0.247 E-score.
For TGAGAAAA the value was -0.291 E-score; for GATATCAC, 0.0237 E-score; for CCTTCGTC, -0.0832 E-score.
In the case of CGAGATCG, the binding signal was -0.12 E-score.
As to CGGTCGTA, the binding signal is 0.0392 E-score.
With GGCATACC, the binding signal was -0.124 E-score.
Under ATGCTTTG stands -0.204 E-score; under CGACTCAA, 0.0383 E-score.
Take AAAGAATA: the binding signal was -0.0742 E-score.
In the case of GGTACCCA, the binding signal came to 0.0105 E-score.
Regarding AATACAAT, the binding signal is -0.182 E-score.
With TACCCTGA, the binding signal is 0.185 E-score.
Regarding AAATTAAG, the binding signal worked out at 0.0314 E-score.
For ATCCGCAC the value was 0.171 E-score; for GTGGCGAA, -0.122 E-score; for GGATTAAC, -0.137 E-score.
In the case of CAATATGC, the binding signal is -0.0635 E-score.
On to ATTCGGAG, for which the binding signal was -0.0206 E-score.
For CATGACTC the value was 0.0678 E-score; for CATCGCGC, -0.264 E-score.
Turning to AAAGCGAG, the binding signal turned out to be 0.0442 E-score.
In the case of CGGGTTTA, the binding signal amounted to 0.0278 E-score.
As to AATCGAAC, the binding signal was -0.024 E-score.
Turning to CATTGGAA, the binding signal is -0.105 E-score.
Take GCGGTACA: the binding signal was 0.305 E-score.
For ACACTTCC, the binding signal is 0.349 E-score.
On to ACCCTACT, for which the binding signal amounted to 0.269 E-score.
In the case of CAAACCCA, the binding signal turned out to be 0.0815 E-score.
As to AACTAGTA, the binding signal was -0.029 E-score.
AGGCGGGC: the binding signal is -0.0488 E-score.
On to CACAGTCC, for which the binding signal is -0.203 E-score.
For AGACAAGA, the binding signal is -0.0558 E-score.
As to AGCCGGCG, the binding signal was -0.0309 E-score.
GCAGAAAA: the binding signal is -0.0246 E-score.
As to AAAACGTG, the binding signal was -0.0701 E-score.
For TGGACCAA the value was 0.0846 E-score; for CACATTCC, -0.0465 E-score.
With TCCCAACA, the binding signal was found to be 0.0778 E-score.
With GCGTTCTA, the binding signal is -0.0248 E-score.
On to ATCGCCTG, for which the binding signal was -0.243 E-score.
For GATAAGAA the value was -0.169 E-score.
On to AGTGTCGC, for which the binding signal is 0.415 E-score.
With AAAGAGCT, the binding signal is -0.197 E-score.
Consider CACCCAGA, for which the binding signal worked out at 0.189 E-score.
In the case of CTAAACTC, the binding signal is -0.122 E-score.
As to TAAGCTCA, the binding signal was -0.112 E-score.
On to CAAACACA, for which the binding signal was 0.19 E-score.
Turning to AATATAAA, the binding signal is -0.149 E-score.
Under AGAATTGG stands -0.136 E-score; under CGGCTCGC, -0.107 E-score.
As for GCGCCGAC, the binding signal is -0.177 E-score.
Under CGTCACCA stands -0.0977 E-score.
Take CGAGATAC: the binding signal was 0.116 E-score.
Turning to ACGCTTCA, the binding signal was -0.00284 E-score.
CGTCTAAC: the binding signal is 0.0446 E-score.
Under AATGGACA stands 0.174 E-score; under ACATCCAC, 0.126 E-score.
With GCATTGGA, the binding signal is -0.0285 E-score.
Under ACTGATTG stands -0.133 E-score.
As for TAGACCAA, the binding signal is -0.2 E-score.
For CAGAGTAC, the binding signal was determined as 0.0765 E-score.
